Here are results for 26 compounds from the antibiotic and cytotoxicity screens of Wong et al. (2023).

Assay [1] concerns HSkMC (human skeletal muscle cells). Briefly: cytotoxicity call (relative viability < 0.9). The settings on record: 10 µM.
Assay [2] concerns HepG2. Briefly: cytotoxicity call (relative viability < 0.9). The settings on record: 10 µM.
Assay [3] concerns S. aureus RN4220. In words: growth inhibition call (relative growth <= 0.2). Conditions: 50 µM.

The list shows a part of the results.

Take `NCCCC[C@@H]1NC(=O)[C@@H](Cc2c[nH]c3ccccc23)NC(=O)[C@H](c2ccccc2)NC(=O)[C@@H]2C[C@@H](OC(=O)NCCN)CN2C(=O)[C@H](Cc2ccccc2)NC(=O)[C@H](Cc2ccc(OCc3ccccc3)cc2)NC1=O`: the cytotoxicity call in assay [1] and in assay [2] was “inactive” throughout. The growth inhibition call in assay [3] is “inactive”.

For the compound `C=CC[C@H](CC(=O)N(CCO)Cc1ccccc1)C(=O)NCCOC(=O)[C@@H](CC=C)CC(=O)OC(C)(C)C`, the cytotoxicity call in assay [1] and in assay [2] was “inactive” in each case. Further, the growth inhibition call in assay [3] was “inactive”.

For `COc1cc2nccc(Oc3ccc(NC(=O)C4(C(=O)Nc5ccc(F)cc5)CC4)cc3)c2cc1OC`, in assay [1], the cytotoxicity call is “active”. In addition, the cytotoxicity call in assay [2] was “inactive”. The growth inhibition call in assay [3] is “inactive”.

`C[C@@H]1CCCCO[C@@H](CN(C)C(=O)Nc2ccc(F)cc2)[C@@H](C)CN([C@H](C)CO)C(=O)c2cc(NC(=O)CCC(F)(F)F)ccc2O1`: the cytotoxicity call in assay [1] and in assay [2] was “inactive” throughout. Further, in assay [3], the growth inhibition call was “inactive”.

As to `COc1ccc(S(=O)(=O)N(C)C[C@H]2Oc3ccc(NS(=O)(=O)c4ccc(C)cc4)cc3CC(=O)N([C@H](C)CO)C[C@@H]2C)cc1`, the cytotoxicity call in assay [1] and in assay [2] was “inactive” throughout. Moreover, the growth inhibition call in assay [3] is “inactive”.

In the case of `C[C@@H]1CN([C@H](C)CO)C(=O)c2cccc(NS(=O)(=O)c3ccccc3)c2O[C@H]1CN(C)S(=O)(=O)c1cccs1`, the cytotoxicity call in assay [1] and in assay [2] was “inactive” throughout. Also, the growth inhibition call in assay [3] was “inactive”.

For the compound `C[C@H]1CN([C@@H](C)CO)C(=O)c2c(c3ccccc3n2C)-c2ccccc2CO[C@@H]1CN(C)C(=O)Nc1ccc(F)cc1`, the cytotoxicity call in assay [1] and in assay [2] was “inactive” each time. In assay [3], the growth inhibition call is “inactive”.

For the compound `C[C@H]1CN([C@@H](C)CO)C(=O)Cc2cc(NC(=O)Cc3cn(C)c4ccccc34)ccc2O[C@@H]1CN(C)C`, the cytotoxicity call in assay [1] and in assay [2] was “inactive” in each case. The growth inhibition call in assay [3] is “inactive”.

Regarding `C[C@H](CO)N1C[C@H](C)[C@H](CN(C)Cc2ccccc2)OCCCC[C@H](C)Oc2ccc(NC(=O)Cc3ccccc3)cc2C1=O`, the cytotoxicity call in assay [1] and in assay [2] was “inactive” throughout. For the same compound, the growth inhibition call in assay [3] was “inactive”.

Take `C[C@H](CO)N1C[C@H](C)[C@H](CN(C)S(=O)(=O)c2ccccc2)Oc2ccc(NS(=O)(=O)c3cccs3)cc2C1=O`: the cytotoxicity call in assay [1] and in assay [2] was “inactive” in each case. Also, the growth inhibition call in assay [3] is “inactive”.

With `C[C@H](CO)N1C[C@H](C)[C@@H](CN(C)C(=O)Cc2ccccc2)OCCCC[C@H](C)Oc2ccc(NC(=O)Nc3ccc4c(c3)OCO4)cc2C1=O`, the cytotoxicity call in assay [1] and in assay [2] was “inactive” each time. Further, the growth inhibition call in assay [3] was “inactive”.

As to `C[C@@H]1CN([C@@H](C)CO)C(=O)c2cc(NS(=O)(=O)c3ccc(Cl)cc3)ccc2O[C@@H](C)CCCCO[C@@H]1CN(C)C(=O)Nc1ccccc1`, the cytotoxicity call in assay [1] and in assay [2] was “inactive” throughout. Further, in assay [3], the growth inhibition call was “inactive”.

`C[C@@H]1CCCCO[C@@H](CN(C)Cc2ccc(C(=O)O)cc2)[C@H](C)CN([C@@H](C)CO)C(=O)c2cc(NC(=O)Nc3cccc4ccccc34)ccc2O1`: the cytotoxicity call in assay [1] and in assay [2] was “inactive” in each case. Besides, the growth inhibition call in assay [3] is “inactive”.

As for `C[C@@H]1CN([C@@H](C)CO)C(=O)Cc2cc(NC(=O)C3CCCCC3)ccc2O[C@@H]1CN(C)Cc1ccc(C(F)(F)F)cc1`, the cytotoxicity call in assay [1] and in assay [2] was “active” throughout. The growth inhibition call in assay [3] was “inactive”.

Take `Cc1ccc(S(=O)(=O)Nc2ccc3c(c2)CC(=O)N([C@H](C)CO)C[C@@H](C)[C@@H](CN(C)CC2CC2)O3)cc1`: the cytotoxicity call in assay [1] and in assay [2] was “inactive” throughout. For the same compound, in assay [3], the growth inhibition call was “inactive”.

Regarding `O=C(NO)c1ccc(C(=O)N/N=C/c2cccc(B(O)O)c2)cc1`, the cytotoxicity call in assay [1] and in assay [2] was “inactive” each time. In addition, the growth inhibition call in assay [3] was “inactive”.

`COCC#Cc1ccc2c(c1)O[C@@H](CN(C)S(=O)(=O)c1cccc(F)c1)[C@@H](C)CN([C@@H](C)CO)S2(=O)=O`: the cytotoxicity call in assay [1] and in assay [2] was “inactive” throughout. In addition, in assay [3], the growth inhibition call was “inactive”.

With `C[C@@H]1CN([C@@H](C)CO)C(=O)Cc2cc(NS(=O)(=O)c3ccc(F)cc3)ccc2O[C@@H]1CN(C)S(=O)(=O)c1cccs1`, the cytotoxicity call in assay [1] and in assay [2] was “inactive” each time. In assay [3], the growth inhibition call is “inactive”.

As to `C[C@@H]1CN([C@H](C)CO)C(=O)c2c(c3ccccc3n2C)-c2ccccc2CO[C@@H]1CN(C)C(=O)c1cc(Cl)cc(Cl)c1`, the cytotoxicity call in assay [1] and in assay [2] was “inactive” in each case. The growth inhibition call in assay [3] was “inactive”.

In the case of `Cc1ccc(S(=O)(=O)N(C)C[C@H]2OCCCC[C@H](C)Oc3ccc(NS(=O)(=O)c4ccc(Cl)cc4)cc3C(=O)N([C@@H](C)CO)C[C@H]2C)cc1`, the cytotoxicity call in assay [1] and in assay [2] was “inactive” throughout. Moreover, in assay [3], the growth inhibition call is “inactive”.

`C[C@@H]1CN([C@H](C)CO)C(=O)c2cc(C#CC3(O)CCCC3)cnc2O[C@@H]1CN(C)S(=O)(=O)c1ccc(F)cc1`: the cytotoxicity call in assay [1] and in assay [2] was “inactive” throughout. For the same compound, in assay [3], the growth inhibition call was “inactive”.

Regarding `COc1ccc(CN(C)C[C@H]2OCCCC[C@@H](C)Oc3ccc(NC(=O)Nc4ccc(F)cc4)cc3C(=O)N([C@H](C)CO)C[C@H]2C)cc1`, the cytotoxicity call in assay [1] and in assay [2] was “active” in each case. In assay [3], the growth inhibition call is “inactive”.

With `C[C@@H]1CN([C@@H](C)CO)C(=O)c2cc(NC(=O)CCC(F)(F)F)ccc2O[C@@H]1CN(C)C(=O)Nc1ccc(C(F)(F)F)cc1`, the cytotoxicity call in assay [1] and in assay [2] was “inactive” each time. In addition, the growth inhibition call in assay [3] was “inactive”.

For `C[C@H](NC(=O)C[C@@H]1C[C@H]2c3cc(NC(=O)Nc4ccc(C(F)(F)F)cc4)ccc3O[C@H]2[C@@H](CO)O1)c1ccccc1`, the cytotoxicity call in assay [1] and in assay [2] was “inactive” in each case. Also, the growth inhibition call in assay [3] was “inactive”.

Turning to `CC(C)NC(=O)N(C)C[C@H]1OCCCC[C@H](C)Oc2ccc(NC(=O)Nc3cccc4ccccc34)cc2C(=O)N([C@H](C)CO)C[C@@H]1C`, the cytotoxicity call in assay [1] and in assay [2] was “inactive” each time. For the same compound, in assay [3], the growth inhibition call was “inactive”.

As for `C[C@H](CO)N1C[C@H](C)[C@H](CN(C)Cc2ccncc2)Oc2ccc(NS(=O)(=O)c3cccs3)cc2CC1=O`, the cytotoxicity call in assay [1] and in assay [2] was “inactive” throughout. In addition, the growth inhibition call in assay [3] is “inactive”.
